Reference: PubChem BioAssay AID623901 (Broad Institute, 2012)
In all, about 340,000 compounds went through this assay and about 470 (0.14%) were called active. This list was built around the results that the source calls inconclusive (neither active nor inactive); the mix of calls is not that of the screen.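 Rule for the calls: active = mean activation of 30% or more, with every replicate also reaching 30%; inconclusive = mean activation of 30% or more but some replicate falls short; inactive = the rest.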

Assay: small molecules raising miR-122 sensor signal – cell-based, Huh7 psiCHECK-miR122, Renilla luciferase, single point, primary screen (AID 623901);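 note: 0% = median of neutral control wells and 100% = median of positive control wells; higher luciferase signal means stronger suppression of miR-122 activity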
Conditions: 48 h, at 12.5 µM, stronger effect = higher value

activation, active:
COc1ccccc1C#Cc1ccc2c(c1)O[C@H](CN(C)Cc1cccnc1)[C@H](C)CN([C@@H](C)CO)S2(=O)=O 39.3%
CN1C(=O)c2cc(NC(=O)c3cccc(F)c3)ccc2OC[C@@H]2O[C@@H](CC(=O)O)CC[C@@H]21 86.7%
COc1cc(C(=O)Nc2ccc(S(=O)(=O)N3CCCCC3C)cc2)cc(OC)c1OC (stereo unspecified) 46.3%
COC(=O)C[C@H]1CC[C@@H]2[C@@H](COc3ccc(NC(=O)c4cnccn4)cc3C(=O)N2C)O1 36.7%
C[C@H](NC(=O)C[C@@H]1CC[C@H]2[C@H](COc3ccc(NS(=O)(=O)c4ccc(Cl)cc4)cc3C(=O)N2C)O1)c1ccccc1 36.7%
C[C@H](CO)N1C[C@H](C)[C@@H](CN(C)Cc2ccc(-c3ccccc3)cc2)Oc2ccc(NC(=O)Cc3ccccc3)cc2CC1=O 34.8%
CCS(=O)(=O)Nc1ccc2c(c1)C(=O)N(C)C[C@@H](OC)[C@H](C)CN(CC1CCCC1)[C@H](C)CO2 38%
C[C@@H]1CN([C@H](C)CO)S(=O)(=O)c2ccc(C#Cc3ccccc3F)cc2O[C@@H]1CN(C)C(=O)c1ccc2c(c1)OCO2 48.9%
COc1ccc(Cn2c(SCc3ccccc3C)nc3cc(OC)c(OC)cc3c2=N)cc1 62.1%

activation, inconclusive:
N#Cc1ccc(NC(=O)Nc2ccc(Oc3ccc(NC(=O)Nc4ccc(C#N)cc4)cc3)cc2)cc1 30.3%
C/C=C/c1ccc([C@H]2[C@H](CO)N[C@H]2CN(CC(C)C)C(=O)c2ccccn2)cc1 33.3%
COCC(=O)Nc1ccc2c(c1)C(=O)N(C)[C@H]1CC[C@@H](CC(=O)NC3CCCC3)O[C@H]1CO2 33.3%
CN1C(=O)c2cc(NC(=O)c3cccc(C(F)(F)F)c3)ccc2OC[C@@H]2O[C@@H](CC(=O)NCCN3CCCC3)CC[C@@H]21 47.5%
CN(C)CCNC(=O)C1CC(=O)N(c2ccc(F)c(Cl)c2)C1 (stereo unspecified) 37.1%
COc1ccccc1C(=O)N1C[C@@H]2[C@H](c3ccccc31)[C@H](CO)N2CC1CCCC1 35.3%
Cc1cc(C(=O)Nc2ccc3c(c2)C(=O)N(C)[C@@H]2CC[C@H](CC(=O)N[C@@H](C)c4ccccc4)O[C@H]2CO3)no1 41.7%
O=C(NC[C@H]1[C@H](c2ccccc2)[C@@H](CO)N1Cc1ccccn1)C1CC1 35.7%
CC(=O)N/N=C/C1=CCC2CC1C2(C)C (stereo unspecified) 32.4%
C[C@H]1CCCCO[C@H](CN(C)Cc2ccc3c(c2)OCO3)[C@@H](C)CN([C@@H](C)CO)C(=O)c2cc(NC(=O)Nc3cccc4ccccc34)ccc2O1 30.5%
CCOC(=O)N1CCC(n2c(SCC(=O)OCc3ccccc3)nc3ccsc3c2=O)CC1 31.2%
COc1cc(-c2nnc(-c3ccco3)o2)ccc1OCc1ccccc1 30.7%
CCCC(=O)Nc1ccc2c(c1)C(=O)N(C)[C@@H]1CC[C@H](CC(=O)Nc3cn(C)nc3C)O[C@@H]1CO2 32.5%
CN1C(=O)c2cc(NC(=O)Cc3ccccc3)ccc2OC[C@H]2O[C@@H](CC(=O)NC3CCC3)CC[C@@H]21 35%
CCNC(=O)C[C@@H]1CC[C@@H]2[C@H](COc3ccc(NC(=O)Nc4cccc(Cl)c4)cc3C(=O)N2C)O1 58.3%
COC(=O)C[C@@H]1CC[C@H]2[C@@H](COc3ccc(NC(=O)Nc4ccccc4C)cc3C(=O)N2C)O1 58.3%
C/C=C/c1ccc([C@H]2[C@H](CO)N[C@H]2CN(C)S(=O)(=O)c2ccccc2)cc1 35.7%
CN1C(=O)c2cc(NS(=O)(=O)c3cccc(F)c3)ccc2OC[C@H]2O[C@@H](CC(=O)NCCN3CCCCC3)CC[C@H]21 38.3%
CCCC#Cc1ccc2c(c1)O[C@H](CN(C)C(=O)COC)[C@H](C)CN([C@@H](C)CO)S2(=O)=O 30.1%
C[C@H]1CN([C@@H](C)CO)C(=O)c2cc(C#CC3CCCC3)cnc2O[C@H]1CN(C)C(=O)Cc1ccccn1 33.7%
COc1ccc(/C(N)=N/OC(=O)CSc2ccc(C)cc2)cc1 46.7%
C[C@H](CO)N1C[C@H](C)[C@H](CN(C)Cc2ccc(C(F)(F)F)cc2)OCCCC[C@H](C)Oc2ccc(NC(=O)CCCN(C)C)cc2C1=O 31%
O=C(CN(c1cccc(C(F)(F)F)c1)S(=O)(=O)c1ccc(Cl)c([N+](=O)[O-])c1)NCc1ccc(F)cc1 39.7%
COCC(=O)Nc1ccc2c(c1)C(=O)N(C)[C@@H]1CC[C@H](CC(=O)Nc3cn(C)nc3C)O[C@H]1CO2 37.5%
C/C=C/c1ccc([C@@H]2[C@@H](CO)N(Cc3ccccn3)[C@H]2CNC(=O)CC)cc1 83.3%
CC(=O)N1[C@H](CO)[C@H](c2ccccc2)[C@@H]1CN(C(=O)c1ccc(F)cc1)C(C)C 58.3%
CO[C@@H]1CN(C)C(=O)c2ccc(NS(=O)(=O)c3cccc(F)c3)cc2OC[C@@H](C)NC[C@H]1C 34.7%
COC(=O)C[C@@H]1CC[C@@H]2[C@H](COc3ccc(NC(=O)c4ccc(F)c(F)c4)cc3C(=O)N2C)O1 41.7%
C[C@H](O)C#Cc1ccc2c(c1)O[C@H](CN(C)Cc1ccc(-c3ccccc3)cc1)[C@@H](C)CN([C@@H](C)CO)S2(=O)=O 40%
COc1cccc(C(=O)N2C[C@H]3[C@@H](c4ccccc42)[C@H](CO)N3C(C)=O)c1 41.7%
Cc1ccccc1-c1nc(CN2CCCC(C(=O)NCCCN3CCOCC3)C2)c(C)o1 (stereo unspecified) 30.8%
Cc1cc(C)n(-c2nc(SCCN(C)C)c3c4c(sc3n2)COC(C)(C)C4)n1 48.6%
CCC(=O)N(C)C[C@@H]1[C@H](c2ccc(-c3ccccc3F)cc2)[C@H](CO)N1C(C)=O 41.7%
C[C@@H](O)C#Cc1ccc2c(c1)O[C@H](CN(C)Cc1ccc(-c3ccccc3)cc1)[C@@H](C)CN([C@@H](C)CO)S2(=O)=O 32.2%
COc1cccc(CNC(=O)C[C@H]2CC[C@@H]3[C@H](COc4ccc(NC(C)=O)cc4C(=O)N3C)O2)c1 43.3%
CCCC(=O)Nc1ccc2c(c1)C(=O)N(C)[C@@H]1CC[C@@H](CC(=O)NCC(F)(F)F)O[C@H]1CO2 33.3%
CCCNC(=O)N1[C@H](CO)[C@H](c2ccc(-c3ccccc3)cc2)[C@@H]1CNC(C)=O 35.7%
CN(C)C(=O)c1ccc(NC(=O)c2cc(-n3cnnc3)ccc2Cl)cc1 31.5%
O=C(Nc1ccc(Cl)c(C(F)(F)F)c1)c1ccco1 46.2%
CCN(CC)S(=O)(=O)c1ccc(NC(=O)Nc2cccc(C(F)(F)F)c2)cc1 33.1%

activation, inactive:
Cc1cc(C)cc(NS(=O)(=O)c2ccc3c(c2)C(C)(C)C(=O)N3C)c1 -107%
COCC#Cc1cnc2c(c1)C(=O)N([C@@H](C)CO)C[C@H](C)[C@@H](CN(C)C(=O)Cc1cccnc1)O2 5.21%
Cc1cc(C)c(C)c(S(=O)(=O)Nc2ccc(C(=O)N3CCCC3)cc2)c1C -135%
COc1ccc(-c2cnc3c(c2)C(=O)N([C@H](C)CO)C[C@@H](C)[C@H](CN(C)C(=O)C2CCOCC2)O3)cc1 -1.39%
CCCC#Cc1cnc2c(c1)C(=O)N([C@H](C)CO)C[C@H](C)[C@H](CN(C)C(=O)C1CC1)O2 -11.6%
C[C@H]1CN([C@@H](C)CO)C(=O)c2cc(C#CC3(O)CCCC3)cnc2O[C@@H]1CN(C)S(C)(=O)=O 1.5%
COCC#Cc1ccc2c(c1)O[C@H](CN(C)Cc1cncnc1)[C@H](C)CN([C@H](C)CO)S2(=O)=O -14.3%
CO[C@H]1CN(C)C(=O)c2cc(NC(=O)c3ccc(F)cc3)ccc2OC[C@@H](C)N(C)C[C@@H]1C -0.77%
Cc1ccc(C)c(S(=O)(=O)Nc2cc3c4c(c2)CCC(=O)N4CCC3)c1 -218%
C[C@H]1CN([C@@H](C)CO)C(=O)c2cc(C#CC3(O)CCCC3)cnc2O[C@H]1CN(C)S(=O)(=O)c1cccc(F)c1 -4.34%
COCC#Cc1cnc2c(c1)C(=O)N([C@H](C)CO)C[C@@H](C)[C@@H](CN(C)Cc1ccccc1)O2 -3.02%
C[C@H](O)C#Cc1ccc2c(c1)O[C@@H](CN(C)Cc1cncnc1)[C@@H](C)CN([C@@H](C)CO)S2(=O)=O 9.75%
C[C@@H]1CN([C@H](C)CO)S(=O)(=O)c2ccc(C#Cc3ccccc3)cc2O[C@H]1CN(C)C(=O)Nc1ccccc1 -0.845%
C[C@@H]1CN([C@@H](C)CO)C(=O)c2cc(/C=C/c3ccccc3)cnc2O[C@@H]1CN(C)S(=O)(=O)c1ccc(F)cc1 4.63%
Cc1ccc(OCC(=O)Nc2cccc3c2CCCC3)cc1C -94.9%
C[C@@H]1CN([C@H](C)CO)C(=O)c2cc(-c3cncnc3)cnc2O[C@@H]1CN(C)Cc1ccc(F)cc1 4.31%
Nc1nonc1C(=O)N1CCCC1 -247%
